Laboratory results as given in article PMC4463469.
These are yes or no findings as the source states them, for the method shown. Binding seen in cells or lysates may run through a third protein. Some binding calls cover weakened binding; strength is not graded here. Sequences can lack the tags named with a protein.

Assays:
[1] = target: T1, Mic60 with a C-terminal protein A tag (S. cerevisiae) (UniProt P36112); test: co-IP; Mic60_(ProtA) captured on immunoglobulin G-Sepharose from isolated mitochondria solubilized in 1% digitonin, 10% glycerol, 20 mM Tris-HCl pH 7.4, 50 mM NaCl, 0.5 mM EDTA, 50 mM iodoacetamide, 1 h at 4 °C; Western blot of eluate; wild-type and sco1Δ background
T1 sequence: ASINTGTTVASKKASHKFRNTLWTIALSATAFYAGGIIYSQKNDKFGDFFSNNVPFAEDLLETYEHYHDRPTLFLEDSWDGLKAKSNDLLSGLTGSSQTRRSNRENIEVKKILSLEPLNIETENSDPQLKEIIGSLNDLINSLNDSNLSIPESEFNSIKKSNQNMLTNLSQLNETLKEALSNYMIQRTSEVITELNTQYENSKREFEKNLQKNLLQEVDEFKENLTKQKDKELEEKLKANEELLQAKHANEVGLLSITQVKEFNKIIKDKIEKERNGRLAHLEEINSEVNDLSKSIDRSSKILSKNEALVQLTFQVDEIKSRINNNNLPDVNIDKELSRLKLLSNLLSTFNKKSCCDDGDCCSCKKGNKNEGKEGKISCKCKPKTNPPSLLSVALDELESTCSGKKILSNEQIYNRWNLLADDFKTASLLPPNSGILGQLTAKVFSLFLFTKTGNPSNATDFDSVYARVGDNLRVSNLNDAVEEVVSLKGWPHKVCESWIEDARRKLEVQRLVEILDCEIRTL

[2] = target: T2, Cox17 fusion protein with a C-terminal FLAG tag (S. cerevisiae) (UniProt Q12287); test: co-IP; anti-FLAG M2 affinity gel on isolated wild-type mitochondria solubilized in 1% digitonin, 10% glycerol, 20 mM Tris-HCl pH 7.4, 300 mM NaCl, 50 mM iodoacetamide; Western blot of eluate
T2 sequence: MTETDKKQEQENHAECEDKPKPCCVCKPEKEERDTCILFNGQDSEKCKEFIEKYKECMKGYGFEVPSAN

[3] = target: T2, Cox17 fusion protein with a C-terminal FLAG tag (S. cerevisiae); test: co-IP; anti-FLAG M2 affinity gel on yeast cell extracts (French press, 1% digitonin, 20 mM Tris-HCl pH 7.4, 50 mM NaCl, 50 mM iodoacetamide), 1.5 h at 4 °C; Western blot of eluate; wild-type, mic60Δ, mic10Δ and sco1Δ cells; cells grown with or without 2.2 mM copper sulfate

B1: native Cox17 (protein, UniProt Q12287 1-69)
chain: T2 sequence
binding [1]: binds

B2: Mic10 (protein, UniProt Q96VH5 1-97)
chain: MSEQAQTQQPAKSTPSKDSNKNGSSVSTILDTKWDIVLSNMLVKTAMGFGVGVFTSVLFFKRRAFPVWLGIGFGVGRGYAEGDAIFRSSAGLRSSKV
binding [1]: binds

B3: Mic26 (protein, UniProt P50087 1-233)
chain: MTKDFYRQLDPVEEKIVPPENAIVISSEAKEATVNEKEAKQGVLSQRVMKYIGENELVDGISVRDPDYLKRFFNERRKQFSAKWDKVTNKIDDIAGRYYAREESFTSTIASLHTDPNERLIPGLLSILVASMTGSVLARRRTWLLRATMPIILGSCCFAYAMPTTFRNTMGLIHNLEMNTFPHFTERQDRVWKETKRLSTASVQYYYDAKKWLNKDVEKTGNAIKNWTGVNVK
binding [1]: binds

B4: Mic19 (protein, UniProt P43594 1-170)
chain: MGSNTSKVGAGAEKQQVYTPLTQIDFSQSLVSQLDSSKESDYVTKQNAEKFIEKKVSQRLSNLEVETLKKFEDTLNNSLLSDDDKDAVDGISSSSLNNQIESLNKKLTLFDQLELQKLEKYGGAKGKSDKKTDNGSISIKAKLTECLLANKGKPLNCYEEMEEFKKLVMG
binding [1]: binds

B5: Mic12 (protein, UniProt P38341 1-106)
chain: MSKLGPLARSVKWTLSVGVIGSVFYLYRYSNNGYFYDHDATWLKQDHQVQDLVDRKEVVPGETRNRKLVVTDDGTAWSRTMGESIKDIWNEQIRNSVDWIYSWGKN
binding [1]: binds

B6: Mic60 (protein, UniProt P36112 18-540)
chain: T1 sequence
binding [2]: binds
binding [3]: binds

B7: Mia40 (protein, UniProt P36046 32-403)
chain: MASSPQFGRNSNQEKTAGFIMGILSMAGALYFIAPNRKPLFASRKVESDKTAEEELSSGGEQSPENEDDNNSKSDENGDDNDSKNDETEAGPQLGGDKIGASKVAEDGELVVLAEEDNKSSEDKDTDESKVSTKDDEQSNEDNATANNQKDENISSENSEENTSDKTLDNNAGSSEKKDPEHSDDEKSQQGQSDDKTTTEDNNGEEESSKKTVSDSENSAKQSESSDEEKEELRKQEEKQMGPTEEEVQHEGAYNPDTGEINWDCPCLGGMAHGPCGEEFKSAFSCFVYSEAEPKGIDCVEKFQHMQDCFRKYPEHYAEQLKETSDDEEPQDKVKVNTIESAPNVSSAKENAAKKAEQSDVKKEPLNEESKP
binding [2]: binds
binding [3]: binds

B8: Erv1 (protein, UniProt P27882 1-189)
chain: MKAIDKMTDNPPQEGLSGRKIIYDEDGKPCRSCNTLLDFQYVTGKISNGLKNLSSNGKLAGTGALTGEASELMPGSRTYRKVDPPDVEQLGRSSWTLLHSVAASYPAQPTDQQKGEMKQFLNIFSHIYPCNWCAKDFEKYIRENAPQVESREELGRWMCEAHNKVNKKLRKPKFDCNFWEKRWKDGWDE
binding [3]: binds

B9: Ccp1 (protein, UniProt P00431 68-361)
chain: TTPLVHVASVEKGRSYEDFQKVYNAIALKLREDDEYDNYIGYGPVLVRLAWHTSGTWDKHDNTGGSYGGTYRFKKEFNDPSNAGLQNGFKFLEPIHKEFPWISSGDLFSLGGVTAVQEMQGPKIPWRCGRVDTPEDTTPDNGRLPDADKDADYVRTFFQRLNMNDREVVALMGAHALGKTHLKNSGYEGPWGAANNVFTNEFYLNLLNEDWKLEKNDANNEQWDSKSGYMMLPTDYSLIQDPKYLSIVKEYANDQDKFFKDFSKAFEKLLENGITFPKDAPSPFIFKTLEEQGL
binding [3]: no binding

B10: Cyc3 (protein, UniProt P06182 1-269)
chain: MGWFWADQKTTGKDIGGAAVSSMSGCPVMHESSSSSPPSSECPVMQGDNDRINPLNNMPELAASKQPGQKMDLPVDRTISSIPKSPDSNEFWEYPSPQQMYNAMVRKGKIGGSGEVAEDAVESMVQVHNFLNEGCWQEVLEWEKPHTDESHVQPKLLKFMGKPGVLSPRARWMHLCGLLFPSHFSQELPFDRHDWIVLRGERKAEQQPPTFKEVRYVLDFYGGPDDENGMPTFHVDVRPALDSLDNAKDRMTRFLDRMISGPSSSSSAP
binding [2]: no binding
binding [3]: no binding

B11: Mir1 (protein, UniProt P23641 1-311)
chain: MSVSAAPAIPQYSVSDYMKFALAGAIGCGSTHSSMVPIDVVKTRIQLEPTVYNKGMVGSFKQIIAGEGAGALLTGFGPTLLGYSIQGAFKFGGYEVFKKFFIDNLGYDTASRYKNSVYMGSAAMAEFLADIALCPLEATRIRLVSQPQFANGLVGGFSRILKEEGIGSFYSGFTPILFKQIPYNIAKFLVFERASEFYYGFAGPKEKLSSTSTTLLNLLSGLTAGLAAAIVSQPADTLLSKVNKTKKAPGQSTVGLLAQLAKQLGFFGSFAGLPTRLVMVGTLTSLQFGIYGSLKSTLGCPPTIEIGGGGH
binding [3]: no binding
